Test results reported in the supplement of paper PMC9151546.
Many values rest on one well or one pass, so single values are uncertain.

Assays:
CHO-K1 [1] = assay: relative survival (nuclei to bead ratio vs DMSO control) (% of vehicle control); higher = more surviving cells
Protocol: (§1)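 Flow-cytometric in vitro micronucleus assay (Litron MicroFlow) in CHO-K1 cells in 96-well plates, 19 concentrations (4.5-200 µM, n=1 per concentration). Without S9, cells were exposed for 24 h and sampled at 48 h. With Aroclor 1254-induced rat liver S9, cells were exposed for 3-4 h and sampled at 27-28 h. Read-outs are %MN and %hypodiploid nuclei relative to nucleated events, and relative survival as the nuclei-to-bead ratio versus the 1% DMSO vehicle control (x100).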

CHO-K1 [2] = assay: hypodiploid nuclei frequency (% of nucleated events); higher = more hypodiploid events (aneugenic)
Protocol: as §1

CHO-K1 [3] = assay: micronucleus frequency (% of nucleated events); higher = more micronuclei (genotoxic)
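For hypodiploid nuclei frequency (% of nucleated events) in this document: hypodiploid nuclei gated on a flow cytometer with 488 nm excitation after SYTOX Green staining, cultures at 37 °C, positive controls vinblastine without S9 and cyclophosphamide with S9.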
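For micronucleus frequency (% of nucleated events) in this document: cells lysed with nuclei stained by SYTOX Green, then micronucleus-gated events counted against nucleated events by flow cytometry with 488 nm excitation.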
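For relative survival (nuclei to bead ratio vs DMSO control) in this document: Lysed-cell nuclei stained with SYTOX Green and counted against counting beads by flow cytometry at 488 nm excitation, with vinblastine (no S9) and cyclophosphamide (plus S9) as positive controls.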

CCOC(=O)C(C)(C)Oc1ccc(Cl)cc1 [Clofibrate]
Details	hypodiploid nuclei frequency, CHO-K1 [2] [%]	micronucleus frequency, CHO-K1 [3] [%]	relative survival, CHO-K1 [1]
concentration: 4.5 (µM), S9 metabolic activation: with S9, exposure time: 3-4 hours	0.12	1.68	127
concentration: 4.5 (µM), S9 metabolic activation: without S9, exposure time: 24 hours	0.48	1.44	115
concentration: 5.63 (µM), S9 metabolic activation: with S9, exposure time: 3-4 hours	0.24	1.44	123
concentration: 5.63 (µM), S9 metabolic activation: without S9, exposure time: 24 hours	0.6	1.88	131
concentration: 7.04 (µM), S9 metabolic activation: with S9, exposure time: 3-4 hours	0.2	1.28	106
concentration: 7.04 (µM), S9 metabolic activation: without S9, exposure time: 24 hours	0.7	1.3	111
concentration: 8.8 (µM), S9 metabolic activation: with S9, exposure time: 3-4 hours	0.1	1.32	113
concentration: 8.8 (µM), S9 metabolic activation: without S9, exposure time: 24 hours	0.68	1.68	117
concentration: 11 (µM), S9 metabolic activation: with S9, exposure time: 3-4 hours	0.26	1.18	115
concentration: 11 (µM), S9 metabolic activation: without S9, exposure time: 24 hours	0.74	1.54	141
concentration: 13.7 (µM), S9 metabolic activation: with S9, exposure time: 3-4 hours	0.24	2.64	117
concentration: 13.7 (µM), S9 metabolic activation: without S9, exposure time: 24 hours	0.6	2.26	115
concentration: 17.2 (µM), S9 metabolic activation: with S9, exposure time: 3-4 hours	0.18	1.48	94.4
concentration: 17.2 (µM), S9 metabolic activation: without S9, exposure time: 24 hours	0.84	1.66	105
concentration: 21.5 (µM), S9 metabolic activation: with S9, exposure time: 3-4 hours	0.3	1.28	122
concentration: 21.5 (µM), S9 metabolic activation: without S9, exposure time: 24 hours	0.52	1.92	115
concentration: 26.8 (µM), S9 metabolic activation: with S9, exposure time: 3-4 hours	0.34	1.36	107
concentration: 26.8 (µM), S9 metabolic activation: without S9, exposure time: 24 hours	0.58	1.38	140
concentration: 33.6 (µM), S9 metabolic activation: with S9, exposure time: 3-4 hours	0.18	1	131
concentration: 33.6 (µM), S9 metabolic activation: without S9, exposure time: 24 hours	0.76	1.72	112
concentration: 41.9 (µM), S9 metabolic activation: with S9, exposure time: 3-4 hours	0.16	1.64	113
concentration: 41.9 (µM), S9 metabolic activation: without S9, exposure time: 24 hours	0.72	1.58	126
concentration: 52.4 (µM), S9 metabolic activation: with S9, exposure time: 3-4 hours	0.26	1.34	93.8
concentration: 52.4 (µM), S9 metabolic activation: without S9, exposure time: 24 hours	0.54	1.68	131
concentration: 65.5 (µM), S9 metabolic activation: with S9, exposure time: 3-4 hours	0.34	1	98.5
concentration: 65.5 (µM), S9 metabolic activation: without S9, exposure time: 24 hours	0.86	1.18	118
concentration: 81.9 (µM), S9 metabolic activation: with S9, exposure time: 3-4 hours	0.3	1.5	99.7
concentration: 81.9 (µM), S9 metabolic activation: without S9, exposure time: 24 hours	0.82	1.74	130
concentration: 102 (µM), S9 metabolic activation: with S9, exposure time: 3-4 hours	0.18	0.88	102
concentration: 102 (µM), S9 metabolic activation: without S9, exposure time: 24 hours	1.06	1.16	98.1
concentration: 128 (µM), S9 metabolic activation: with S9, exposure time: 3-4 hours	0.14	1.42	108
concentration: 128 (µM), S9 metabolic activation: without S9, exposure time: 24 hours	0.9	1.72	117
concentration: 160 (µM), S9 metabolic activation: with S9, exposure time: 3-4 hours	0.3	1.26	106
concentration: 160 (µM), S9 metabolic activation: without S9, exposure time: 24 hours	1.1	1.84	108
concentration: 200 (µM), S9 metabolic activation: with S9, exposure time: 3-4 hours	0.18	1.36	93.3
concentration: 200 (µM), S9 metabolic activation: without S9, exposure time: 24 hours	1.6	2.46	98.6
